The text below walks through data of patent US6448281B1 (Boehringer Ingelheim (Canada) Ltd., priority 2000, dated 2002).

The assay deals with hepatitis C virus RNA dependent polymerase (NS5B) (Hepacivirus hominis (Hepatitis C virus), UniProt P26663). Kind of assay: Inhibition of NS5B RNA dependent RNA polymerase activity (SPA, UMP-[5,6 3H] incorporation).
Setting [1] is: IC50 μM, first compound table (printed title TABLE 10; Table 1).

The structures appear in SMILES notation.

In the case of `CC(=O)Nc1nc([C@H](Cc2ccc(O)cc2)NC(=O)c2ccc3c(c2)nc(-c2ccoc2)n3C2CCCCC2)cs1` [Entry 1242, 1-Cyclohexyl-2-furan-3-yl-1H-benzimidazole-5-carboxylic Acid [(S)-1-(2-Acetylamino-thiazol-4-yl)-2-(4-hydroxy-phenyl)-ethyl]-amide], under setting [1], the IC50 was 1 to 5 µM. The molecule `COC(=O)[C@H](Cc1c[nH]c2ccc(OCC(=O)O)cc12)NC(=O)c1ccc2c(c1)nc(-c1ccoc1)n2C1CCCCC1` [Entry 11008] had an IC50 (IC50, Table 11) of under 1 µM.

On to `CCOC(=O)CCNC(=O)NC1CCCC(NC(=O)c2ccc3c(c2)nc(-c2ccoc2)n3C2CCCCC2)C1` (stereo not drawn) [Entry 1214], for which the IC50 under setting [1] lay within 10 to 25 µM.

With `O=C(O)c1cccc(CNC2CCCC(NC(=O)c3ccc4c(c3)nc(-c3ccoc3)n4C3CCCCC3)C2)c1` (stereo not drawn) [Entry 1289], the IC50 under setting [1] was 1 to 5 µM. The same measure, in the same setting: the value for `CN(C)NC(=O)c1ccc2c(c1)nc(-c1ccoc1)n2C1CCCCC1` [Entry 1300] was 5 to 10 µM. `O=C(N[C@@H](Cc1cnc[nH]1)C(=O)O)c1ccc2c(c1)nc(-c1ccccn1)n2C1CCCCC1` [Entry 2025]: the IC50 (IC50 μM, Table 2) lay in the range of 5 to 10 µM.

Regarding `[N-]=[N+]=Nc1cc(C[C@H](NC(=O)c2ccc3c(c2)nc(-c2ccoc2)n3C2CCCCC2)C(=O)O)ccc1O` [Entry 1248, (S)-3-(3-Azido-4-hydroxy-phenyl)-2-{[1-(1-cyclohexyl-2-furan-3-yl-1H-benzimidazol-5-yl)-methanoyl]-amino}-propionic Acid], the IC50 under setting [1] lay within 1 to 5 µM. On to `COc1ccc(C(NC(=O)c2ccc3c(c2)nc(-c2ccoc2)n3C2CCCC2)C(=O)O)cc1OC` (stereo not drawn) [Entry 3002], for which the IC50 (IC50 μM, Table 3) was under 1 µM.

On to `O=C(N[C@@H](Cc1ccc(O)cc1)C(=O)NCc1cccnc1)c1ccc2c(c1)nc(-c1ccoc1)n2C1CCCCC1` [Entry 16047], for which the IC50 (IC50, Table 16) was under 1 µM. Under setting [1], `CC(C)[C@H](Cc1ccc(O)cc1)NC(=O)c1ccc2c(c1)nc(-c1ccoc1)n2C1CCCCC1` [Entry 1089] displayed a concentration for half-maximal inhibition (IC50) of 1 to 5 µM. The molecule `COc1ccc(CCNC(=O)c2ccc3c(c2)nc(-c2ccccc2)n3C2CCCCC2)cc1OC` [Entry 2004] returned an IC50 (IC50 μM, Table 2) of 10 to 25 µM. Take `NC(=O)Nc1ccc(C[C@H](NC(=O)c2ccc3c(c2)nc(-c2ccoc2)n3C2CCCCC2)C(=O)O)cc1` [Entry 16026, (S)-2-{[1-(1-Cyclohexyl-2-furan-3-yl-1H-benzoimidazol-5-yl)-methanoyl]-amino}-3-(4-ureidophenyl)-propionic Acid]: the IC50 (IC50, Table 16) is under 1 µM.

In the case of `CCOc1ccc(C(C)NC(=O)c2ccc3c(c2)nc(-c2ccccn2)n3C2CCCCC2)cc1OCC` (stereo not drawn) [Entry 2045], the IC50 (IC50 μM, Table 2) lay within 1 to 5 µM. For `O=C(O)/C=C/c1ccc(CN2CCC(CNC(=O)c3ccc4c(c3)nc(-c3ccoc3)n4C3CCCCC3)CC2)cc1` [Entry 1278], the half-inhibitory concentration (IC50) under setting [1] is 1 to 5 µM.

The molecule `Cc1cc(-c2nc3cc(C(=O)N[C@@H](Cc4c[nH]c5ccc(O)cc45)C(=O)O)ccc3n2C2CCCCC2)n[nH]1` [Entry 2126] registered an IC50 (IC50 μM, Table 2) of 1 to 5 µM. In the case of `COc1ccc(CNC(=O)c2ccc3c(c2)nc(-c2ccc(OCC(=O)NCCCN(C)C)cc2)n3C2CCCCC2)cc1OC` [Entry 2062, 1-Cyclohexyl-2-{4-[(3-dimethylamino-propylcarbamoyl)-methoxy]-phenyl}-1H-benzoimidazole-5-carboxylic Acid 3,4-Dimethoxybenzyl Amide], the half-inhibitory concentration (IC50) (IC50 μM, Table 2) was in the range of 5 to 10 µM. The molecule `O=C(NC(C(=O)O)c1ccc(C(F)(F)F)cc1)c1ccc2c(c1)nc(-c1ccoc1)n2C1CCCCC1` (stereo not drawn) [Entry 1002] yielded an IC50 under setting [1] of 10 to 25 µM. As to `CNC(=O)C(=O)Nc1ccc2[nH]cc(C[C@H](NC(=O)c3ccc4c(c3)nc(-c3ccoc3)n4C3CCCCC3)C(N)=O)c2c1` [Entry 13010, N^1-[3-((S)-2-Carbamoyl-2-{[1-(1-cyclohexyl-2-furan-3-yl-1H-benzimidazol-5-yl)-methanoyl]-amino}-ethyl)-1H-indol-5-yl]-N^2-methyl-oxalamide], the IC50 (IC50, Table 13) is under 1 µM. `CC(C(=O)O)c1ccc(NC(=O)c2ccc3c(c2)nc(-c2ccoc2)n3C2CCCCC2)cc1` (stereo not drawn) [Entry 1238]: the IC50 under setting [1] fell in the range of 10 to 25 µM. With `O=C(O)c1ccc2c(c1)nc(-c1ccco1)n2C1CCCCC1` [Entry 7013], the IC50 (IC50 μM, Table 7) is 1 to 5 µM. Where the note is “IC50 μM, Table 2”, `COc1ccc(C(CC(C)C)NC(=O)c2ccc3c(c2)nc(-c2ccccn2)n3C2CCCCC2)cc1OC` (stereo not drawn) [Entry 2051] returned an IC50 of 5 to 10 µM. In the case of `O=C(NC(Cc1c[nH]c2ccc(O)cc12)C(=O)O)c1ccc2c(c1)nc(-c1ccoc1)n2C1C2CCC(C2)C1CO` (stereo not drawn) [Entry 3035], the IC50 (IC50 μM, Table 3) was in the range of 1 to 5 µM. `CC(=O)Nc1ccc(-c2nc3cc(C(=O)N[C@@H](Cc4c[nH]c5ccc(O)cc45)C(=O)O)ccc3n2C2CCCCC2)cc1` [Entry 2085] showed an IC50 (IC50 μM, Table 2) of 1 to 5 µM. Under “IC50 μM, Table 6”, `O=C(O)[C@@H]1C[C@@H](O)CN1C(=O)c1ccc2c(c1)nc(-c1ccoc1)n2C1CCCCC1` [Entry 6001] registered an IC50 of 10 to 25 µM. Under setting [1], `O=C(O)c1cccc(NC(=O)N2CCC(NC(=O)c3ccc4c(c3)nc(-c3ccoc3)n4C3CCCCC3)C2)c1` (stereo not drawn) [Entry 1202] came in with a half-maximal inhibitory concentration (IC50) of 1 to 5 µM. For the molecule `COc1ccc(CCNC(=O)c2ccc3c(c2)nc(-c2ccccc2F)n3C2CCCCC2)cc1OC` [Entry 2005], the IC50 (IC50 μM, Table 2) was 10 to 25 µM. With `C=CCC(C)(C)c1nc2cc(C(=O)N[C@@H](Cc3c[nH]c4ccc(O)cc34)C(=O)O)ccc2n1C1CCCCC1` [Entry 2088], the IC50 (IC50 μM, Table 2) is 10 to 25 µM. Molecule `O=C(Nc1cccc(C(=O)O)c1)NC1CCCC(NC(=O)c2ccc3c(c2)nc(-c2ccoc2)n3C2CCCCC2)C1` (stereo not drawn) [Entry 1205] displayed an IC50 under setting [1] of 1 to 5 µM.

Turning to `Cn1cccc1-c1nc2cc(C(=O)O)ccc2n1C1CCCCC1` [Entry 7024], for the setting “IC50 μM, Table 7”, the 50% inhibitory concentration (IC50) was in the range of 1 to 5 µM. The molecule `COc1ccc(C(NC(=O)c2ccc3c(c2)nc(-c2ccc(OCC(=O)NCCCN(C)C)cc2)n3C2CCCCC2)C(=O)O)cc1OC` (stereo not drawn) [Entry 2026] came in with an IC50 (IC50 μM, Table 2) of 10 to 25 µM.

For the setting “IC50, Table 16”, `O=C(N[C@@H](Cc1ccc(OCc2nnn[nH]2)cc1)C(=O)O)c1ccc2c(c1)nc(-c1ccoc1)n2C1CCCCC1` [Entry 16022, (S)-2-{[1-(1-Cyclohexyl-2-furan-3-yl-1H-benzoimidazol-5-yl)-methanoyl]-amino}-3-[4-(1H-tetrazol-5-ylmethoxy)-phenyl]-propionic Acid] registered an IC50 of under 1 µM.

For the setting “IC50, Table 16”, `CS(=O)(=O)Nc1ccc(C[C@H](NC(=O)c2ccc3c(c2)nc(-c2ccoc2)n3C2CCCCC2)C(=O)O)cc1` [Entry 16032] showed a concentration for half-maximal inhibition (IC50) of under 1 µM. In turn, `O=C(N[C@@H](Cc1c[nH]c2ccc(O)cc12)C(=O)O)c1ccc2c(c1)nc(-c1ccc(OCCO)cc1)n2C1CCCCC1` [Entry 12010] came in with an IC50 (IC50, Table 12) of under 1 µM. For `CCOC(=O)c1cccc(NC(=O)NC2CCCC(NC(=O)c3ccc4c(c3)nc(-c3ccoc3)n4C3CCCCC3)C2)c1` (stereo not drawn) [Entry 1206], the IC50 under setting [1] fell in the range of 10 to 25 µM. In turn, `O=C(O)c1ccc2c(c1)nc(/C=C/c1ccccc1)n2C1CCCCC1` [Entry 7011] registered an IC50 (IC50 μM, Table 7) of 10 to 25 µM.

Molecule `N#Cc1ccc(C[C@H](NC(=O)c2ccc3c(c2)nc(-c2ccoc2)n3C2CCCCC2)C(=O)O)cc1` [Entry 1024] displayed an IC50 under setting [1] of 1 to 5 µM.

The molecule `CC(C)(Oc1ccc2[nH]cc(C[C@H](NC(=O)c3ccc4c(c3)nc(-c3ccoc3)n4C3CCCCC3)C(=O)O)c2c1)C(=O)O` [Entry 11010] showed an IC50 (IC50, Table 11) of under 1 µM. In turn, `O=C(O)CCNC(=O)N[C@H]1CC[C@H](NC(=O)c2ccc3c(c2)nc(-c2ccoc2)n3C2CCCCC2)CC1` [Entry 1215] showed an IC50 under setting [1] of 10 to 25 µM. For the molecule `O=C(N[C@@H](Cc1c[nH]c2ccc(O)cc12)C(=O)O)c1ccc2c(c1)nc(-c1ccccc1OCCO)n2C1CCCCC1` [Entry 2093], under “IC50 μM, Table 2”, the IC50 was in the range of 1 to 5 µM.

As for `O=C(O)CCNC(=O)N1CCC(NC(=O)c2ccc3c(c2)nc(-c2ccoc2)n3C2CCCCC2)CC1` [Entry 1218], the half-maximal inhibitory concentration (IC50) under setting [1] lay in the range of 10 to 25 µM. Molecule `O=C(N[C@@H](CO)C(=O)O)c1ccc2c(c1)nc(-c1ccccn1)n2C1CCCCC1` [Entry 2021] displayed an IC50 (IC50 μM, Table 2) of 10 to 25 µM.

Turning to `O=C(NC(Cc1ccc(C(=O)O)c(F)c1)C(=O)O)c1ccc2c(c1)nc(-c1ccoc1)n2C1CCCCC1` (racemic) [Entry 1142, 4-(2-Carboxy-2-{[1-(1-cyclohexyl-2-furan-3-yl-1H-benzimidazol-5-yl)-methanoyl]-amino}-ethyl)-2-fluoro-benzoic Acid], the half-maximal inhibitory concentration (IC50) under setting [1] lay within 1 to 5 µM. Regarding `Cc1nc([C@H](Cc2ccc(OCC(=O)O)cc2)NC(=O)c2ccc3c(c2)nc(-c2ccoc2)n3C2CCCCC2)cs1` [Entry 1131, {4-[(S)-2-{[1-(1-Cyclohexyl-2-furan-3-yl-1H-benzimidazol-5-yl)-methanoy]-amino}-2-(2-methyl-thiazol-4-yl)-ethyl]-phenoxy}-acetic Acid], under setting [1], the IC50 lay in the range of 1 to 5 µM. In turn, `O=C(N[C@@H](Cc1c[nH]c2ccc(O)cc12)C(=O)O)c1ccc2c(c1)nc(-c1cc(O)cc(O)c1)n2C1CCCCC1` [Entry 2100] showed an IC50 (IC50 μM, Table 2) of 1 to 5 µM. Under “IC50 μM, Table 2”, `CN(C)CCCNC(=O)COc1ccc(-c2nc3cc(C(=O)NCc4ccc(S(N)(=O)=O)cc4)ccc3n2C2CCCCC2)cc1` [Entry 2070] had an IC50 of 5 to 10 µM. `O=C(NC(Cc1ccc2ccccc2c1)C(=O)O)c1ccc2c(c1)nc(-c1ccoc1)n2C1CCCCC1` (stereo not drawn) [Entry 1029] registered an IC50 under setting [1] of 5 to 10 µM.

For `COc1ccc(C(NC(=O)c2ccc3c(c2)nc(-c2ncc[nH]2)n3C2CCCCC2)C(=O)O)cc1OC` (stereo not drawn) [Entry 2068], the IC50 (IC50 μM, Table 2) was in the range of 5 to 10 µM. `O=C(O)CNC(=O)N1CCC(NC(=O)c2ccc3c(c2)nc(-c2ccoc2)n3C2CCCCC2)CC1` [Entry 1195] registered an IC50 under setting [1] of 10 to 25 µM. Take `CN(C)CCNC(=O)[C@H](Cc1c[nH]c2ccc(O)cc12)NC(=O)c1ccc2c(c1)nc(-c1ccoc1)n2C1CCCCC1` [Entry 13015, 1-Cyclohexyl-2-furan-3-yl-1H-benzimidazole-5-carboxylic Acid [(S)-1-(2-Dimethylamino-ethylcarbamoyl)-2-(5-hydroxy-1H-indol-3-yl)-ethyl]-amide]: the IC50 (IC50, Table 13) was under 1 µM.

Under setting [1], `O=C(NC1CCCN(Cc2ccccc2C(=O)O)C1)c1ccc2c(c1)nc(-c1ccoc1)n2C1CCCCC1` (stereo not drawn) [Entry 1270] came in with a 50% inhibitory concentration (IC50) of 10 to 25 µM. In turn, `O=C(O)COc1ccc2[nH]cc(C[C@H](NC(=O)c3ccc4c(c3)nc(-c3ccoc3)n4[C@@H]3CCCC[C@H]3O)C(=O)O)c2c1` [Entry 22008] returned an IC50 (IC50 μM, Table 22) of under 1 µM.

The IC50 is the concentration that inhibits the measured activity by half.
